Assays:
[1] = target: human Netrin-1 (recombinant) (human, UniProt O95631 25-604, limits assumed); test: ELISA, 2.5 µg/ml βAPPs coated, netrin-1 titrated; simulated Scatchard plot
[2] = target: T1, high molecular weight (HMW) Aβ1-40 (UniProt P05067 fragment); test: size-exclusion chromatography and BS3 cross-linking with western blots
T1 construct: domain: Aβ1-40; oligomeric, about 60 kDa after cross-linking; also called partially aggregated Aβ1-40; Aβ1-40 oligomers

[3] = target: T2, low molecular weight (LMW) Aβ1-40 (UniProt P05067 fragment); test: Aβ detected in the SEC-purified complex (protein:Aβ 1:20) by SDS-PAGE and Sypro Ruby staining
T2 construct: domain: Aβ1-40; primarily monomeric by SEC; also called Aβ1-40 prepared as a monomer; low molecular weight Aβ1-40

[4] = target: the molecule itself; test: SAXS, molecular weight against reference proteins, DAMMIN and BUNCH (homodimer)

Kd [1]	binding result [2]	binding result [3]	Binder	binding result [4]
~6 nM	–	–	recombinant βAPPs (receptor, Coated at 2.5 µg/ml in the ELISA) not shown	–
–	binds	binds	eAPP[…] (N-terminal His-Patch thioredoxin fusion with the complete ectodomain of APP695, […]) (receptor, Expressed in E. coli; Parallel dimer in solution by SAXS, in equilibrium with the monomer; also called full-length eAPP; eAPP[…]; not shown: N-terminal His-Patch thioredoxin fusion partner and linker (pET-102/D-TOPO, Invitrogen)) EVPTDGNAGLLAEPQIAMFCGRLNMHMNV[here about 40 residues without letters]ANQPVTIQNWCKRGRKQCKTHPHFVIPYRCLVGEFVSDALLVPDKCKFLHQERMDVCETHLHWHTVAKETCSEKSTNLHDYGMLLPCGIDKFRGVEFVCCPLAEESDNVDSADAEEDDSDVWWGGADTDYADGSEDKVVEVAEEEEVAEVEEEEADDDEDDEDGDEVEEEAEEPYEEATERTTSIATTTTTTTESVEEVVRVPTTAASTPDAVDKYLETPGDENEHAHFQKAKERLEAKHRERMSQVMREWEEAERQAKNLPKADKKAVIQHFQEKVESLEQEAANERQQLVETHMARVEAMLNDRRRLALENYITALQAVPPRPRHVFNMLKKYVRAEQKDRQHTLKHFEHVRMVDPKKAAQIRSQVMTHLRVIYERMNQSLSLLYNVPAVAEEIQDEVDELLQKEQNYSDDVLANMISEPRISYGNDALMPSLTETKTTVELLPVNGEFSLDDLQPWHSFGADSVPANTENEVEPVDARPAADRGLTTRPGSGLTNIKTEEISEVKMDAEFRHDSGYEVHHQKLVFFAEDVGSNK	binds

From patent US20100099609A1 (BUCK INSTITUTE FOR AGE RESEARCH, published 2010)
